# Measured values: the supplement of paper PMC8728848
# Some of the results follow.
# Tests used:
# Assay in all cases: glycan array binding signal (z-score within array); higher = stronger binding
# Settings in all cases: glycan notation: IUPAC condensed, linker removed
# Fuc(a1-2)Gal = target: Fuc(a1-2)Gal
# Summary of the method: (§1)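 The binding signal is a Z-score computed within each array. Data were drawn from 3228 arrays in the Consortium for Functional Glycomics database, restricted to those with a known protein sequence. Scores were averaged over arrays of the same protein sequence at different concentrations or buffers, and over linkers, and negative values can be taken as non-binding.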
# Fuc(a1-2)Gal(b1-3)GalNAc = target: Fuc(a1-2)Gal(b1-3)GalNAc
# Summary of the method: as §1
# [1] = target: Fuc(a1-2)Gal(b1-3)GalNAc(a1-3)[Fuc(a1-2)]Gal(b1-4)Glc
# Summary of the method: as §1
# [2] = target: Fuc(a1-2)Gal(b1-3)GalNAc(a1-3)[Fuc(a1-2)]Gal(b1-4)GlcNAc
# Summary of the method: as §1
# [3] = target: Fuc(a1-2)Gal(b1-3)GalNAc(b1-3)Gal
# Summary of the method: as §1
# [4] = target: Fuc(a1-2)Gal(b1-3)GalNAc(b1-3)Gal(a1-4)Gal(b1-4)Glc
# Summary of the method: as §1
# [5] = target: Fuc(a1-2)Gal(b1-3)GalNAc(b1-4)[Neu5Ac(a2-3)]Gal(b1-4)Glc
# Summary of the method: as §1
# Fuc(a1-2)Gal(b1-3)GlcNAc = target: Fuc(a1-2)Gal(b1-3)GlcNAc
# Summary of the method: as §1
# [6] = target: Fuc(a1-2)Gal(b1-3)GlcNAc(b1-2)Man(a1-3)[Fuc(a1-2)Gal(b1-3)GlcNAc(b1-2)Man(a1-6)]Man(b1-4)GlcNAc(b1-4)GlcNAc
# Summary of the method: as §1
# [7] = target: Fuc(a1-2)Gal(b1-3)GlcNAc(b1-2)Man(a1-3)[Fuc(a1-2)Gal(b1-3)GlcNAc(b1-2)Man(a1-6)]Man(b1-4)GlcNAc(b1-4)[Fuc(a1-6)]GlcNAc
# Summary of the method: as §1
# [8] = target: Fuc(a1-2)Gal(b1-3)GlcNAc(b1-3)Gal(b1-4)Glc
# Summary of the method: as §1
# [9] = target: Fuc(a1-2)Gal(b1-3)GlcNAc(b1-3)GalNAc
# Summary of the method: as §1
# [10] = target: Fuc(a1-2)Gal(b1-3)GlcNAc(b1-3)[Fuc(a1-2)Gal(b1-3)GlcNAc(b1-6)]GalNAc
# Summary of the method: as §1
# [11] = target: Fuc(a1-2)Gal(b1-3)GlcNAc(b1-3)[Gal(b1-4)GlcNAc(b1-6)]Gal(b1-4)Glc
# Summary of the method: as §1
# [12] = target: Fuc(a1-2)Gal(b1-3)GlcNAc(b1-3)[Neu5Ac(a2-6)Gal(b1-4)GlcNAc(b1-6)]Gal(b1-4)Glc
# Summary of the method: as §1
# [13] = target: Fuc(a1-2)Gal(b1-3)GlcNAc6S
# Summary of the method: as §1
# [14] = target: Fuc(a1-2)Gal(b1-3)[Fuc(a1-4)]GlcNAc
# Summary of the method: as §1
# [15] = target: Fuc(a1-2)Gal(b1-3)[Fuc(a1-4)]GlcNAc(b1-2)Man(a1-3)[Fuc(a1-2)Gal(b1-3)[Fuc(a1-4)]GlcNAc(b1-2)Man(a1-3)]Man(b1-4)GlcNAc(b1-4)GlcNAc
# Summary of the method: as §1
# [16] = target: Fuc(a1-2)Gal(b1-3)[Fuc(a1-4)]GlcNAc(b1-2)Man(a1-3)[Fuc(a1-2)Gal(b1-3)[Fuc(a1-4)]GlcNAc(b1-2)Man(a1-6)]Man(b1-4)GlcNAc(b1-4)[Fuc(a1-6)]GlcNAc(b1-4)[Fuc(a1-6)]GlcNAc
# Summary of the method: as §1
# [17] = target: Fuc(a1-2)Gal(b1-3)[Fuc(a1-4)]GlcNAc(b1-3)[Fuc(a1-3)[Gal(b1-4)]GlcNAc(b1-6)]Gal(b1-4)Glc
# Summary of the method: as §1
# [18] = target: Fuc(a1-2)Gal(b1-3)[Fuc(a1-4)]GlcNAc(b1-3)[Gal(b1-4)GlcNAc(b1-6)]Gal(b1-4)Glc
# Summary of the method: as §1
# [19] = target: Fuc(a1-2)Gal(b1-4)Fuc(a1-3)]GlcNAc(b1-2)Man(a1-3)[Fuc(a1-2)Gal(b1-4)[Fuc(a1-3)]GlcNAc(b1-2)Man(a1-6)]Man(b1-4)GlcNAc(b1-4)GlcNAc
# Summary of the method: as §1
# Fuc(a1-2)Gal(b1-4)Glc = target: Fuc(a1-2)Gal(b1-4)Glc
# Summary of the method: as §1
# Fuc(a1-2)Gal(b1-4)Glc6S = target: Fuc(a1-2)Gal(b1-4)Glc6S
# Summary of the method: as §1
# Fuc(a1-2)Gal(b1-4)GlcNAc = target: Fuc(a1-2)Gal(b1-4)GlcNAc
# Summary of the method: as §1
# [20] = target: Fuc(a1-2)Gal(b1-4)GlcNAc(b1-2)Man
# Summary of the method: as §1
# [21] = target: Fuc(a1-2)Gal(b1-4)GlcNAc(b1-2)Man(a1-3)[Fuc(a1-2)Gal(b1-4)GlcNAc(b1-2)Man(a1-6)]Man(b1-4)GlcNAc(b1-4)GlcNAc
# Summary of the method: as §1
# [22] = target: Fuc(a1-2)Gal(b1-4)GlcNAc(b1-2)Man(a1-3)[Fuc(a1-2)Gal(b1-4)GlcNAc(b1-2)Man(a1-6)]Man(b1-4)GlcNAc(b1-4)[Fuc(a1-6)]GlcNAc
# Summary of the method: as §1
# [23] = target: Fuc(a1-2)Gal(b1-4)GlcNAc(b1-2)[Fuc(a1-2)Gal(b1-4)GlcNAc(b1-4)]Man(a1-3)[Fuc(a1-2)Gal(b1-4)GlcNAc(b1-2)Man(a1-6)]Man(b1-4)GlcNAc(b1-4)GlcNAc
# Summary of the method: as §1
# [24] = target: Fuc(a1-2)Gal(b1-4)GlcNAc(b1-3)Gal(b1-4)GlcNAc
# Summary of the method: as §1
# [25] = target: Fuc(a1-2)Gal(b1-4)GlcNAc(b1-3)Gal(b1-4)GlcNAc(b1-2)Man(a1-3)[Fuc(a1-2)Gal(b1-4)GlcNAc(b1-3)Gal(b1-4)GlcNAc(b1-2)Man(a1-6)]Man(b1-4)GlcNAc(b1-4)GlcNAc
# Summary of the method: as §1
# [26] = target: Fuc(a1-2)Gal(b1-4)GlcNAc(b1-3)Gal(b1-4)GlcNAc(b1-3)Gal(b1-4)GlcNAc
# Summary of the method: as §1
# [27] = target: Fuc(a1-2)Gal(b1-4)GlcNAc(b1-3)GalNAc
# Summary of the method: as §1
# [28] = target: Fuc(a1-2)Gal(b1-4)GlcNAc(b1-3)[Fuc(a1-2)Gal(b1-4)GlcNAc(b1-6)]GalNAc
# Summary of the method: as §1
# [29] = target: Fuc(a1-2)Gal(b1-4)GlcNAc(b1-3)[Fuc(a1-3)[Gal(b1-4)]GlcNAc(b1-6)]Gal(b1-4)Glc
# Summary of the method: as §1
# [30] = target: Fuc(a1-2)Gal(b1-4)GlcNAc(b1-6)GalNAc
# Summary of the method: as §1
# [31] = target: Fuc(a1-2)Gal(b1-4)GlcNAc6S
# Summary of the method: as §1
# [32] = target: Fuc(a1-2)Gal(b1-4)[Fuc(a1-3)]GlcNAc
# Summary of the method: as §1
# [33] = target: Fuc(a1-2)Gal(b1-4)[Fuc(a1-3)]GlcNAc(b1-2)Man(a1-3)[Fuc(a1-2)Gal(b1-4)[Fuc(a1-3)]GlcNAc(b1-2)Man(a1-6)]Man(b1-4)GlcNAc(b1-4)[Fuc(a1-6)]GlcNAc
# Summary of the method: as §1
# [34] = target: Fuc(a1-2)Gal(b1-4)[Fuc(a1-3)]GlcNAc(b1-2)[Fuc(a1-2)Gal(b1-4)[Fuc(a1-3)]GlcNAc(b1-4)]Man(a1-3)[Fuc(a1-2)Gal(b1-4)[Fuc(a1-3)]GlcNAc(b1-2)Man(a1-6)]Man(b1-4)GlcNAc(b1-4)GlcNAc
# Summary of the method: as §1
# [35] = target: Fuc(a1-2)Gal(b1-4)[Fuc(a1-3)]GlcNAc(b1-3)Gal(b1-4)[Fuc(a1-3)]GlcNAc
# Summary of the method: as §1
# [36] = target: Fuc(a1-2)Gal(b1-4)[Fuc(a1-3)]GlcNAc(b1-3)Gal(b1-4)[Fuc(a1-3)]GlcNAc(b1-3)Gal(b1-4)[Fuc(a1-3)]GlcNAc
# Summary of the method: as §1
# [37] = target: Fuc(a1-2)Gal(b1-4)[Fuc(a1-3)]GlcNAc(b1-3)GalNAc
# Summary of the method: as §1
# [38] = target: Fuc(a1-2)Gal(b1-4)[Fuc(a1-3)]GlcNAc(b1-3)[Neu5Ac(a2-6)Gal(b1-4)GlcNAc(b1-6)]Gal(b1-4)Glc
# Summary of the method: as §1
# [39] = target: Fuc(a1-2)Gal3S(b1-4)GlcNAc
# Summary of the method: as §1
binder,measurement,setting,value
Threefoil (Haloarcula marismortui) (protein) GSSHHHHHHHHHHSSGLVPRGSHMGDGYYKLVARHSGKALDVENASTSDGANVIQYSYSGGDNQQWRLVDLGDGYYKLVARHSGKALDVENASTSDGANVIQYSYSGGDNQQWRLVDLGDGYYKLVARHSGKALDVENASTSDGANVIQYSYSGGDNQQWRLVDL,glycan array binding signal (z-score),Fuc(a1-2)Gal,-0.057
same,glycan array binding signal (z-score),Fuc(a1-2)Gal(b1-3)GalNAc,-0.158
same,glycan array binding signal (z-score),[1],-0.119
same,glycan array binding signal (z-score),[2],-0.165
same,glycan array binding signal (z-score),[3],-0.202
same,glycan array binding signal (z-score),[4],-0.212
same,glycan array binding signal (z-score),[5],-0.191
same,glycan array binding signal (z-score),Fuc(a1-2)Gal(b1-3)GlcNAc,-0.251
same,glycan array binding signal (z-score),[6],-0.094
same,glycan array binding signal (z-score),[7],0.056
same,glycan array binding signal (z-score),[8],-0.192
same,glycan array binding signal (z-score),[9],-0.292
same,glycan array binding signal (z-score),[10],-0.126
same,glycan array binding signal (z-score),[11],0
same,glycan array binding signal (z-score),[12],-0.187
same,glycan array binding signal (z-score),[13],-0.132
same,glycan array binding signal (z-score),[14],-0.203
same,glycan array binding signal (z-score),[15],-0.191
same,glycan array binding signal (z-score),[16],-0.217
same,glycan array binding signal (z-score),[17],-0.256
same,glycan array binding signal (z-score),[18],-0.143
same,glycan array binding signal (z-score),[19],-0.174
same,glycan array binding signal (z-score),Fuc(a1-2)Gal(b1-4)Glc,-0.107
same,glycan array binding signal (z-score),Fuc(a1-2)Gal(b1-4)Glc6S,-0.212
same,glycan array binding signal (z-score),Fuc(a1-2)Gal(b1-4)GlcNAc,-0.156
same,glycan array binding signal (z-score),[20],-0.199
same,glycan array binding signal (z-score),[21],-0.082
same,glycan array binding signal (z-score),[22],-0.202
same,glycan array binding signal (z-score),[23],-0.182
same,glycan array binding signal (z-score),[24],-0.045
same,glycan array binding signal (z-score),[25],-0.024
same,glycan array binding signal (z-score),[26],-0.133
same,glycan array binding signal (z-score),[27],-0.049
same,glycan array binding signal (z-score),[28],-0.114
same,glycan array binding signal (z-score),[29],0.235
same,glycan array binding signal (z-score),[30],0.058
same,glycan array binding signal (z-score),[31],-0.285
same,glycan array binding signal (z-score),[32],-0.152
same,glycan array binding signal (z-score),[33],-0.217
same,glycan array binding signal (z-score),[34],-0.095
same,glycan array binding signal (z-score),[35],-0.301
same,glycan array binding signal (z-score),[36],-0.189
same,glycan array binding signal (z-score),[37],-0.142
same,glycan array binding signal (z-score),[38],-0.226
same,glycan array binding signal (z-score),[39],-0.199
